According to paper PMC6717765, “p32 is a negative regulator of p53 tetramerization and transactivation” (Molecular Oncology, 2019):

Target: T1, His-tagged p32 (wild type, recombinant) (UniProt Q07021 74-282)
T1 construct: p32 (gC1qR/C1QBP/HABP1); also called His-p32; mature p32
T1 sequence (looked up): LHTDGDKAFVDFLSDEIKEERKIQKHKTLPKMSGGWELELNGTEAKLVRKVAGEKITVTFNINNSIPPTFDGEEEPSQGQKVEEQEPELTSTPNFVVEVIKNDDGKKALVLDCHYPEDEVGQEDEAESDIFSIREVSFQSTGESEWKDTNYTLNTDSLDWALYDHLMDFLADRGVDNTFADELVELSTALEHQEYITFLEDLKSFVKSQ
Experiment: pull-down; GST or GST-p53 fusions immobilised on glutathione-Sepharose beads, His-tagged p32 in solution; overnight at 4 °C; 20 mM Tris/HCl pH 7.3, 0.2 M KCl, 0.2 mM EDTA, 20% glycerol, 0.01% Nonidet P-40; blot with anti-His
Conditions: both partners purified

B1: GST-p53 C-terminal region ([…]) (domain or fragment)
chain: not shown
notes: source: bacterially produced, purified on glutathione-Sepharose 4B beads
B1: binds.
